According to PubChem BioAssay AID624255 (Broad Institute, 2012):
About 4,600 (6%) of roughly 77,000 compounds were called active. The inconclusive results got no clear call from the source; some entries with a clear call stand among them for comparison.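 Rule for the calls: active = mean inhibition above about 93%, with at least 55% of replicates each passing it (limit read from the data, passing the limit was not always enough); inconclusive = only one of those two conditions holds; inactive = neither condition holds.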

test: T. cruzi intracellular proliferation inhibitors, primary screen, cell-based, beta-gal Tulahuen parasites, NIH3T3 host, luminescence (AID 624255); details: T. cruzi beta-gal in NIH3T3, GalScreen luminescence, 90 h; at 8.34 µM; stronger effect = higher value

| Structure (SMILES) | inhibition |
| --- | --- |
| C[C@H](CO)N1C[C@H](C)[C@H](CN(C)C(=O)CN(C)C)Oc2ncc(-c3ccc(F)cc3)cc2C1=O | inactive: -38% |
| O=C(C[C@H]1CC[C@@H]2[C@H](COC[C@@H](O)CN2CCC(F)(F)F)O1)N1CCC(Cc2ccccc2)CC1 | inconclusive: 106% |
| O=C(C[C@H]1CC[C@H]2[C@@H](COC[C@@H](O)CN2Cc2cccc(C(F)(F)F)c2)O1)NCc1ccncc1 | inactive: 73.9% |
| Cc1ccc(S(=O)(=O)Nc2ccc3c(c2)C(=O)N([C@H](C)CO)C[C@H](C)[C@H](CN(C)CC2CCCCC2)OCCCC[C@H](C)O3)cc1 | inconclusive: 95.1% |
| Cc1cccc(S(=O)(=O)N2CCCCN3[C@H](CO)[C@@H](c4ccc(C#C[C@H](C)O)cc4)[C@H]3C2)c1 | inconclusive: 96.7% |
| Cc1noc(C)c1S(=O)(=O)Nc1cccc2c1O[C@@H](CN(C)C(=O)Nc1ccc(F)cc1)[C@@H](C)CN([C@@H](C)CO)C2=O | inactive: 19% |
| COCC(=O)Nc1ccc2c(c1)C(=O)N(C)C[C@@H](OC)[C@@H](C)CN(Cc1cncnc1)[C@@H](C)CO2 | inactive: -24.5% |
| C[C@H]1CN([C@@H](C)CO)C(=O)c2cc(NC(=O)Nc3ccc4c(c3)OCO4)ccc2O[C@H]1CN(C)Cc1ccc(C(=O)O)cc1 | inactive: 88.5% |
| CN(C)C(=O)c1cccc(-c2ccc3c(c2)[C@@H]2[C@@H](CCN2C(=O)C2CCOCC2)[C@H](CO)N3)c1 | inconclusive: 99.1% |
| CN(C)C(=O)c1cccc(-c2ccc([C@H]3[C@@H](CO)N4CCCCN(C(=O)C5CCC5)C[C@H]34)cc2)c1 | inconclusive: 97.8% |
| O=C(c1cccnc1)N1CCCCN2[C@@H](CO)[C@H](c3ccc(C#Cc4ccccc4)cc3)[C@@H]2C1 | inconclusive: 96.2% |
| COc1ccccc1-c1cnc2c(c1)C(=O)N([C@@H](C)CO)C[C@H](C)[C@H](CN(C)C(=O)c1ccccc1)O2 | inconclusive: 95.1% |
| O=C(Nc1ccccc1)N1CCCCN2[C@H](CO)[C@@H](c3ccc(-c4ccccc4)cc3)[C@@H]2C1 | inconclusive: 100% |
| O=C(NC[C@H]1N[C@H](CO)[C@@H]1c1ccc(-c2ccccc2F)cc1)c1ccccc1 | inconclusive: 98.9% |
| Cc1ccc(S(=O)(=O)Nc2ccc3c(c2)C(=O)N([C@H](C)CO)C[C@@H](C)[C@H](CN(C)S(=O)(=O)c2c(C)noc2C)OCCCC[C@@H](C)O3)cc1 | inconclusive: 98.2% |
| CC(C)CC#Cc1cnc2c(c1)C(=O)N([C@@H](C)CO)C[C@@H](C)[C@@H](CN(C)Cc1ccc(F)cc1)O2 | inconclusive: 104% |
| Cc1noc(C)c1S(=O)(=O)Nc1cccc2c1O[C@@H](CN(C)Cc1ccc(-c3ccccc3)cc1)[C@@H](C)CN([C@@H](C)CO)C2=O | inactive: 27.3% |
| OC[C@@H]1Nc2ccc(C#Cc3ccccc3)cc2[C@H]2[C@@H]1CCN2Cc1nccs1 | inconclusive: 116% |
| Cn1cnc(S(=O)(=O)N2CC[C@@H]3[C@@H](CO)Nc4ccc(-c5ccc(F)cc5)cc4[C@@H]32)c1 | inconclusive: 76.5% |

| Structure (SMILES) | inhibition |
| --- | --- |
| CC(C)CC#Cc1ccc2c(c1)O[C@H](CN(C)C(=O)Nc1ccccc1F)[C@@H](C)CN([C@H](C)CO)S2(=O)=O | active: 91.7% |
| N#C[C@H]1[C@H](c2ccccc2)[C@H](CO)N1S(=O)(=O)c1ccc(-c2ccccc2)cc1 | inactive: 72.9% |
| C[C@H](CO)N1C[C@H](C)[C@@H](CN(C)Cc2ccc(Cl)c(Cl)c2)Oc2c(NC(=O)Nc3ccc(C(F)(F)F)cc3)cccc2C1=O | inconclusive: 109% |
| Cc1ccccc1S(=O)(=O)N1CC[C@@H]2[C@@H](CO)N(C)c3ccc(Br)cc3[C@@H]21 | inconclusive: 99.6% |
| O=C(C[C@@H]1CC[C@H]2[C@@H](COC[C@H](O)CN2Cc2cccc(Cl)c2)O1)NCC1CCCCC1 | inactive: -26.5% |
| CCCC#Cc1ccc([C@H]2[C@@H](CO)N3CCCCN(Cc4cccnc4)C[C@H]23)cc1 | inconclusive: 96.9% |
| C[C@H](CO)N1C[C@H](C)[C@@H](CN(C)Cc2ccc(Cl)c(Cl)c2)OCCCC[C@H](C)Oc2ccc(NS(=O)(=O)c3ccc(Cl)cc3)cc2C1=O | inactive: 78.1% |
| Cc1ccc(S(=O)(=O)N(C)C[C@@H]2Oc3ncc(C#Cc4ccc(C(F)(F)F)cc4)cc3C(=O)N([C@H](C)CO)C[C@@H]2C)cc1 | inconclusive: 109% |
| CC(C)NC(=O)Nc1ccc2c(c1)C(=O)N([C@H](C)CO)C[C@@H](C)[C@H](CN(C)Cc1ccc(-c3ccccc3)cc1)O2 | inactive: -157% |
| N#C[C@H]1[C@@H](c2ccc(/C=C/c3ccccc3)cc2)[C@@H](CO)N1C(=O)C1CC1 | inconclusive: 96.2% |
| COc1ccc(C#Cc2ccc3c(c2)O[C@H](CN(C)C(=O)NC2CCCCC2)[C@H](C)CN([C@H](C)CO)S3(=O)=O)cc1 | inconclusive: 99.4% |
| COCC#Cc1ccc2c(c1)O[C@H](CN(C)Cc1ccc(F)cc1)[C@@H](C)CN([C@@H](C)CO)S2(=O)=O | inactive: 83% |
| C[C@@H]1CN([C@@H](C)CO)C(=O)c2cc(NC(=O)CCC(F)(F)F)ccc2O[C@@H]1CN(C)Cc1ccc(Cl)c(Cl)c1 | inactive: 50.9% |
| COc1ccc(S(=O)(=O)N(C)C[C@@H]2OCc3ccccc3-c3ccccc3C(=O)N([C@@H](C)CO)C[C@@H]2C)cc1 | inactive: 28.9% |
| CCCN(C)C[C@@H]1Oc2cc(C#Cc3ccccc3F)ccc2S(=O)(=O)N([C@@H](C)CO)C[C@@H]1C | inconclusive: 113% |
| C[C@@H]1CN([C@@H](C)CO)C(=O)c2cccc(NC(=O)Nc3ccc(C(F)(F)F)cc3)c2O[C@@H]1CN(C)Cc1ccc(Cl)c(Cl)c1 | inconclusive: 118% |
| Cc1ccc(-c2cnc3c(c2)C(=O)N([C@@H](C)CO)C[C@@H](C)[C@@H](CN(C)C(=O)c2ccc(F)cc2)O3)cc1 | inactive: 72.6% |
| COc1ccc(CN(C)C[C@@H]2OCCCC[C@@H](C)Oc3ccc(NC(=O)Nc4ccc(F)cc4)cc3C(=O)N([C@H](C)CO)C[C@H]2C)cc1 | inconclusive: 95% |
